Among all 150,000 compounds or so, about 180 (0.12%) were called active. Inconclusive means that the source gave no clear call. Such entries were picked first, then a sample of the others. Calls come from the whole dose curve; as a rule, active = well fitted cell-killing curve with a large enough effect; inconclusive = small, poorly fitted or top-dose-only effect, or effect the other way; inactive = flat fitted curve, though single readings scatter. Potencies beside an inconclusive call are fits to weak or partial responses and may not hold up.
Experiment: GF-AFC viability counterscreen for inhibitors of alpha-synuclein gene (SNCA) expression; note: nearly all actives have a fitted effect of over 30% in size
Details: HEK-293-SNCA-luc viability, GF-AFC fluorescence, 24 h; series mostly up to 57.1 µM
Procedure, shortened: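 Cytotoxicity counterscreen: after 24 h compound treatment of genome-edited SNCA-luciferase HEK-293 cells, live-cell protease substrate GF-AFC read by fluorescence after 30 min; activity scaled between DMSO (0%) and medium-only (-100%), curves Hill-fitted.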
Potency is the fitted concentration of half-maximal effect; tags give direction and shape of the fitted curve.

Row | SMILES | Potency
1 | COc1cccc(C2CCN(C(=O)c3cn(CCc4ccccc4)nn3)C2)c1OC (stereo not drawn) | inconclusive: 39.8 µM [cytotoxic, partial curve, poor fit]
2 | COc1ccc(NC(=O)c2nc3sccn3c2-c2cccc(C(F)(F)F)c2)cc1 | active: 22.4 µM
3 | O=C(CSc1nc(-c2ccc(F)cc2)[nH]c1-c1ccc(F)cc1)Nc1ccc2c(c1)OCO2 | inconclusive: 25.1 µM [cytotoxic, partial curve, poor fit]
4 | CN(C)Cc1ccccc1-c1nc(NC2CCNCC2)c2ccccc2n1 | inconclusive: 14.1 µM [cytotoxic, partial curve]
5 | C=C1C(=O)OC2/C=C(\COC(C)=O)CC/C=C(\C=O)CC(OC(=O)C(C)CC)C12 (stereo not drawn) | inconclusive: 9.22 µM [cytotoxic, single point]
6 | CCOc1cc(Cl)c(S(=O)(=O)n2ccnc2)cc1Cl | inconclusive: 2.24 µM [rising, full curve, poor fit]
7 | CCc1ccc(NC(=O)CN2C(=O)C3(SCC(=O)N3c3ccc(F)c(F)c3)c3ccccc32)cc1 (stereo not drawn) | inconclusive: 22.4 µM [cytotoxic, partial curve, poor fit]
8 | CCc1nc2nc(C)cc(Nc3cccc(C)c3C)n2n1 | inactive
9 | COc1ccc(-c2cc(-c3ccc4c(c3)CNC4=O)cn3cncc23)cc1 | inactive
10 | COc1cc(-c2cccc(O)c2)cc2c1OCO2 | inconclusive: 10.6 µM [cytotoxic, single point]
11 | COc1ccc(OC)c(NC(=O)c2cc3c(N4CCSCC4)nc(C)cn3n2)c1 | inactive
12 | Nc1cccc2c1C(=O)N(C1CCC(=O)NC1=O)C2=O (stereo not drawn) | inconclusive: 27.1 µM [rising, partial curve]
13 | Cc1ccc(CN2CCC(N3CC(OCC4CC4)C34CCOCC4)CC2)s1 (stereo not drawn) | inconclusive: 39.8 µM [cytotoxic, single point]
14 | Cc1ccc(CN(C)C(=O)CC(c2ccccc2)c2ccc3c(c2)OCO3)o1 (stereo not drawn) | inactive
15 | COc1cccc(NC(=O)NC[C@@H]2C=C(C)[C@H](CC(=O)N3CCN(c4ccccn4)CC3)C[C@H]2C(C)C)c1 | inconclusive: 39.8 µM [cytotoxic, single point]
16 | Cn1cccc1CN1CCC2(CC1)CN(Cc1ccccc1)CC2CO (stereo not drawn) | inconclusive: 20 µM [cytotoxic, partial curve, poor fit]
17 | Cc1ccc(NC(=O)Cn2nc(Cc3ccncc3)c3ccccc3c2=O)c(Cl)c1 | inconclusive: 35.5 µM [cytotoxic, single point]
18 | O=c1[nH]ccn1C1CCN(Cc2ccc(C(F)(F)F)cc2)CC1 | inactive

Source: PubChem BioAssay AID1671193 (National Center for Advancing Translational Sciences (NCATS), 2021)
